# From PubChem BioAssay AID504333 (National Center for Advancing Translational Sciences (NCATS), 2011)
# About 16,000 (4.4%) of roughly 360,000 compounds were called active. The shares of active, inactive and inconclusive entries below differ from those in the screen. Calls come from the whole dose curve; as a rule, active = well fitted inhibition curve with a large enough effect; inconclusive = small, poorly fitted or top-dose-only effect; inactive = no such curve, though single readings can be large or run the other way. Potencies beside an inconclusive call are fits to weak or partial responses and may not hold up.
# Biological target: Bromodomain adjacent to zinc finger domain protein 2B (Homo sapiens) (UniProt Q9UIF8)
# Test: qHTS Assay for Inhibitors of BAZ2B; note: nearly all actives have a fitted effect of over 60% in size
# Details: AlphaScreen BAZ2B-H3K14Ac peptide displacement; activity change, negative = inhibition: at 114 µM (top of the series) unless noted
# Procedure, shortened: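 Complex of BAZ2B and biotin-H3K14Ac (50 nM apiece) forms over 30 min at RT, then faces library compounds up to 110 uM for another 30 min; AlphaScreen beads added, 20 min dark incubation, luminescence read.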
# % is set by controls: 0 for no effect and ±100 for the full control effect; potency is the fitted concentration of half-maximal effect; tags give direction and shape of the fitted curve.
# Chain of UniProt Q9UIF8 (Q9UIF8 whole entry, looked up, the tested form may be a part): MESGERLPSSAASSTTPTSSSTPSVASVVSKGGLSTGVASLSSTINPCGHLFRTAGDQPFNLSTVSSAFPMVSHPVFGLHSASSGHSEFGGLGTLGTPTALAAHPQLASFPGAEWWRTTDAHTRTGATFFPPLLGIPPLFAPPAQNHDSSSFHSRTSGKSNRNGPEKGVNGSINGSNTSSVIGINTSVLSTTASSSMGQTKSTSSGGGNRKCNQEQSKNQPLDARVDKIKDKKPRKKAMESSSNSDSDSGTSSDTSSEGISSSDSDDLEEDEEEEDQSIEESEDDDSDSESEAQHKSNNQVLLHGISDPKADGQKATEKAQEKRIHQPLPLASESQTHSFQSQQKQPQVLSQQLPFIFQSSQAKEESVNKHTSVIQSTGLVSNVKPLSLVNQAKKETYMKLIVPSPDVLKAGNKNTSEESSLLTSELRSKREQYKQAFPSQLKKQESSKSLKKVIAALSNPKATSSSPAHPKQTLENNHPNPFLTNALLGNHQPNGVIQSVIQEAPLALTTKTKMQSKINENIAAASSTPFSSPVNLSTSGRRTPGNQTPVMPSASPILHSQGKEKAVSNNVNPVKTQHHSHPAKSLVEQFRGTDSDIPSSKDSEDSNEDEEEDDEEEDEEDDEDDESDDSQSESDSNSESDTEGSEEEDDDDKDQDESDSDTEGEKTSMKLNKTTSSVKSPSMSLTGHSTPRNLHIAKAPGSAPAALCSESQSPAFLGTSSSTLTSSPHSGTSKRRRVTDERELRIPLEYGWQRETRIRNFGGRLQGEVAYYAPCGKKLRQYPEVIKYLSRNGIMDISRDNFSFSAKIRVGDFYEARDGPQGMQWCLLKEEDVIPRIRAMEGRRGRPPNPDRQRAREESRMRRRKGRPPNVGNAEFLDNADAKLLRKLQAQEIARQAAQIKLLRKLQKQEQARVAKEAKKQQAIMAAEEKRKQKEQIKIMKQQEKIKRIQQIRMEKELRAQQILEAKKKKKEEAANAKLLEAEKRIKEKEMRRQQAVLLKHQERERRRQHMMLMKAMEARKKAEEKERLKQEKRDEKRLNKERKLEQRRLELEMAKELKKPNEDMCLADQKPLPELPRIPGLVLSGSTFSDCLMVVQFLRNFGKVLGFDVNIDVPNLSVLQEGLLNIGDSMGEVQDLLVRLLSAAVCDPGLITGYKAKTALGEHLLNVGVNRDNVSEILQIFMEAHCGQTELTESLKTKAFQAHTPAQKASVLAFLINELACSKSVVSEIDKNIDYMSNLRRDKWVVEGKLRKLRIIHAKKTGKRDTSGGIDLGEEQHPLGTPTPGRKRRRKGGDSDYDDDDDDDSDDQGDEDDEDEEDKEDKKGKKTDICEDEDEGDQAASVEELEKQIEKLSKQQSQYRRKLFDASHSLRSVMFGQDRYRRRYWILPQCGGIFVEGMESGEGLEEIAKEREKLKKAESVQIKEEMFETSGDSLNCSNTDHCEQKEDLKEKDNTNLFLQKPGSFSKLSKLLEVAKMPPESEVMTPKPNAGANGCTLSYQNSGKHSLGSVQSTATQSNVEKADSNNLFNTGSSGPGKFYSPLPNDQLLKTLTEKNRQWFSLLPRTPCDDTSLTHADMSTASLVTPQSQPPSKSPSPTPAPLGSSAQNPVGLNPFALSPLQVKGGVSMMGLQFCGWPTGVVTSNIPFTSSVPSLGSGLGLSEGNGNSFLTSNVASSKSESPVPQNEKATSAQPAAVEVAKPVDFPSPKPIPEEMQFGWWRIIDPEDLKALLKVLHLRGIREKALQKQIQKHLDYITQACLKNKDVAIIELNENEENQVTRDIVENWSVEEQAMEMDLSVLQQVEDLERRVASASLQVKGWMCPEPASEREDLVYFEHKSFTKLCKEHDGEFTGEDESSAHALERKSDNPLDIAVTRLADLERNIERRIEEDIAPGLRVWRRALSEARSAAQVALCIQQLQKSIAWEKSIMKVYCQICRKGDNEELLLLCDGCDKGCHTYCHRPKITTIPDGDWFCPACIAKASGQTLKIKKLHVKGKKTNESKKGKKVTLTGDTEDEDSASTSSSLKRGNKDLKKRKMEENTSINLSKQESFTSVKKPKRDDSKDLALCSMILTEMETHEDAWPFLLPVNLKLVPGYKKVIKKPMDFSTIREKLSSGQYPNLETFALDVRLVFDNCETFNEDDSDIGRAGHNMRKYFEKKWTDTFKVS
SMILES,Potency,"activity change, negative = inhibition"
O=C(CCS(=O)(=O)c1ccc(Br)cc1)Nc1ccc2c(c1)OCO2,active: 50.1 µM,–
COc1ccccc1C1(CC(=O)N2CCOCC2)CCOC(C(C)C)C1 (stereo not given),"inconclusive: 8.91 µM [inhibitor, single point]",–
COCCCNc1nc2ccccc2[nH]c1=O,–,inactive: -1.52%
CC(C)CCCC(C)CCOC(=O)CN1CCCC1 (stereo not given),–,inactive: -0.967%
O=[N+]([O-])c1ccc(Cl)c(CN2CCSCC2)c1,"inconclusive: 79.4 µM [inhibitor, single point]",–
Nc1ccc(N=Nc2ccccc2)c(N)n1,"inconclusive: 44.7 µM [inhibitor, partial curve]",–
Cc1ccc([N+](=O)[O-])cc1S(=O)(=O)Nc1cccc(-c2ccc(N3CCCC3)nn2)c1,"inconclusive: 56.2 µM [inhibitor, single point]",–
COc1cc(OC)c(N(C)C(=O)c2cn(C3CCCC3)c(=O)c3c2c2ccccc2n3C)cc1Cl,"inconclusive: 50.1 µM [inhibitor, partial curve]",–
Cc1ccccc1C(=O)OCc1cc(=O)n2nc(C(C)C)sc2n1,"inconclusive: 89.1 µM [inhibitor, single point]",–
O=C(Nc1cccc(C(F)(F)F)c1)N1CC2CCCN2c2ccccc21 (stereo not given),active: 28.2 µM,–
Cc1nn(Cc2ccc(F)cc2)c(C)c1NC(=O)c1cc2ncc(Br)cn2n1,"inconclusive: 50.1 µM [inhibitor, partial curve]",–
CCN(CC)C(=O)N1CCN(C)CC1,"inconclusive: 56.2 µM [inhibitor, partial curve]",–
CC(C)c1ccc(NC2CCCN(C(=O)c3cccs3)C2)cc1 (stereo not given),"inconclusive: 12.6 µM [inhibitor, partial curve]",–
CCCOc1ccc(CNC(=O)c2ccc(C)c(-n3c(C)nc4cccnc43)c2)cc1,–,inactive: -12.4%
Cc1ccc(S(=O)(=O)N/N=C\c2ccc(C)o2)cc1,active: 50.1 µM,–
CCOC(=O)/C(N=Nc1cc(C(=O)O)cc(C(=O)O)c1)=C(\O)CCl,"inconclusive: 89.1 µM [inhibitor, single point]",–
CC[C@@H](C)[C@H](CNC)NC[C@@H](Cc1cccc2ccccc12)NCCc1cccc(C(F)(F)F)c1,"inconclusive: 39.8 µM [inhibitor, partial curve]",–
O=C(CSc1nncc(=O)[nH]1)NCc1ccccc1,"inconclusive: 89.1 µM [inhibitor, single point]",–
N#C/C(=C\Nc1ccccn1)S(=O)(=O)c1ccc(Cl)cc1,"inconclusive: 3.55 µM [inhibitor, single point]",–
CC(Nc1cc(N2CCN(C(=O)C(C)(C)C)CC2)ccc1[N+](=O)[O-])c1ccccc1 (stereo not given),"inconclusive: 35.5 µM [inhibitor, partial curve]",–
